Results from PubChem BioAssay AID504339 (National Center for Advancing Translational Sciences (NCATS), 2011).
The campaign covered roughly 390,000 compounds. About 17,000 (4.4%) were called active. Inconclusive results, whose numbers are uncertain, are shown with a selection of clear calls. Calls follow the shape of the dose curve; as a rule, active = well fitted inhibition curve with a large enough effect; inconclusive = small, poorly fitted or top-dose-only effect; inactive = no such curve, though single readings can be large or run the other way. Potencies beside an inconclusive call are fits to weak or partial responses and may not hold up.

target: Lysine-specific demethylase 4A (Homo sapiens) (UniProt O75164); experiment: qHTS Assay for Inhibitors of JMJD2A-Tudor Domain; conditions: AlphaScreen JMJD2A-Tudor / H3K4me3 peptide binding; activity change, negative = inhibition: at 114 µM (top of the series); also: nearly all actives have a fitted effect of over 50% in size
% is scaled to controls: 0 for no effect and ±100 for the full control effect; potency is read from the fitted curve at half-maximal effect; tags tell the direction and shape of the fitted curve.

UniProt O75164, sequence (O75164 whole entry, looked up, the tested form may be a part): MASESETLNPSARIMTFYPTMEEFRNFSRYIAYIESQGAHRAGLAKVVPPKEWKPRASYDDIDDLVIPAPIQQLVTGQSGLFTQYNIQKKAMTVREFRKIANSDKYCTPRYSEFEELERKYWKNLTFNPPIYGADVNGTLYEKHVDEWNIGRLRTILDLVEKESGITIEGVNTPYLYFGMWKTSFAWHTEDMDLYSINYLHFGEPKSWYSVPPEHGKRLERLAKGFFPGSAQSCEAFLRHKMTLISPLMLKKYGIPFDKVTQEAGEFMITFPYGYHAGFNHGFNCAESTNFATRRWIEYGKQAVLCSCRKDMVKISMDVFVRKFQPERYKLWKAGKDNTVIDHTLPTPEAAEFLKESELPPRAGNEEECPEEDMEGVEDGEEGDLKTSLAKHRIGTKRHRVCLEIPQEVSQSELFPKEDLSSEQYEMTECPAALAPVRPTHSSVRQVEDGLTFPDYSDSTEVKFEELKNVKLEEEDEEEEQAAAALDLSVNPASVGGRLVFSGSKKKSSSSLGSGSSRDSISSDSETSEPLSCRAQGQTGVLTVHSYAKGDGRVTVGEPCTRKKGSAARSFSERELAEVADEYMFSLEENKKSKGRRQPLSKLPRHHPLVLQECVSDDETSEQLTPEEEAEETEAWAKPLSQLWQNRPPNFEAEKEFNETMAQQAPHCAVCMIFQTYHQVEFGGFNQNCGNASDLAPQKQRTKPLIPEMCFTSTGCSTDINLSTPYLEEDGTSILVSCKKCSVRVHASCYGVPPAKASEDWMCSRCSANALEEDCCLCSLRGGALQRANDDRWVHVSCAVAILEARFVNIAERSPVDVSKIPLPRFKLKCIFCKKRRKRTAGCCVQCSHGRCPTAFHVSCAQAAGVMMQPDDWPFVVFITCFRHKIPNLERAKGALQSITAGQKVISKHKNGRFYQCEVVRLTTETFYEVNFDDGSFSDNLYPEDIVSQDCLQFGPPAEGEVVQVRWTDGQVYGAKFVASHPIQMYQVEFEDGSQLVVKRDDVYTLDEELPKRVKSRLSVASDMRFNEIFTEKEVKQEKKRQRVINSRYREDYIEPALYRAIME

Question: For `COc1ccccc1N=C1NC(=O)/C(=C/c2ccc(N(C)C)cc2)S1`, which Potency is on record?
Answer: inconclusive: 20 µM [inhibitor, full curve]

Question: With `O=C1NC(c2ccccc2)=C(c2nc3ccccc3s2)C(c2ccc(F)cc2)N1` (centres undefined) as the compound, how does the Potency read?
Answer: inconclusive: 22.4 µM [inhibitor, full curve]

Question: `Cc1ccccc1CN1CCN(CC2CC3C=CC2C3)CC1` (centres undefined) was tested. Which Potency did it give?
Answer: active: 5.62 µM

Question: With `CCNS(=O)(=O)c1ccc(NC(=O)c2ccccc2OCC)cc1` as the compound, how does the Potency read?
Answer: inconclusive: 56.2 µM [inhibitor, partial curve]

Question: How did the “activity change, negative = inhibition” value turn out when `CCOc1ccc(C(=O)c2cn(CC(=O)Nc3ccc(OC)cc3)c3cc4c(cc3c2=O)OCO4)cc1` was run?
Answer: inactive: -19.9%

Question: Which Potency does the source give for `O=C(Nc1ccn(CCCNCc2ccc3[nH]ccc3c2)c(=O)n1)OCc1ccccc1` here?
Answer: inconclusive: 89.1 µM [inhibitor, partial curve, poor fit]

Question: With `Cc1ccc(NC(=O)N2CC3CCCN3c3ccccc32)cc1C` (centres undefined) as the compound, how does the Potency read?
Answer: active: 50.1 µM

Question: How did the “activity change, negative = inhibition” value turn out when `Cc1cc2c(s1)c1cnn(Cc3ccccc3Br)c(=O)c1n2C` was run?
Answer: inactive: -19.9%

Question: Which Potency does the source give for `COc1ccc(/C=N/Nc2nncc3ccccc23)cc1` here?
Answer: active: 28.2 µM

Question: For `Cn1ccc(C(=O)NC(=S)N2CCSCC2)n1`, which Potency is on record?
Answer: active: 50.1 µM

Question: With `CN(C)c1ccc(CN(Cc2ccco2)C(=O)COc2ccc(F)cc2)cc1` as the compound, how does the Potency read?
Answer: active: 44.7 µM

Question: Which Potency does the source give for `Cc1[nH]c(=O)[nH]c(=O)c1S(=O)(=O)N1CCC(C(=O)NC(C)c2ccccc2)CC1` (centres undefined) here?
Answer: inconclusive: 89.1 µM [inhibitor, single point]

Question: How did the Potency turn out when `C/C(=N\NC(=O)c1cccc2ccccc12)c1ccccn1` was run?
Answer: active: 56.2 µM

Question: With `CCOc1ccc(NCC(=O)Nc2ccc(Cl)cc2C)cc1` as the compound, how does the Potency read?
Answer: inconclusive: 44.7 µM [inhibitor, full curve, poor fit]

Question: How did the Potency turn out when `Cc1ccc(C2C(C(=O)c3sc(C)nc3C)=C(O)C(=O)N2CCN2CCOCC2)o1` (centres undefined) was run?
Answer: inconclusive: 28.2 µM [inhibitor, full curve, poor fit]

Question: How did the Potency turn out when `O=C(Nc1nc(-c2ccccn2)cs1)c1ccccc1-n1cnnn1` was run?
Answer: inconclusive: 3.98 µM [inhibitor, single point]

Question: `CSC(=S)NN=C(C)c1cccc(C)n1` was tested. Which Potency did it give?
Answer: active: 5.01 µM

Question: Which “activity change, negative = inhibition” value does the source give for `Cc1ccc(Cl)cc1N1CCN(C(=O)Cn2cnc3nc4c(cc3c2=O)CCCC4)CC1` here?
Answer: inactive: -35.8%

Question: For `Cn1nnnc1N=N/C(=N/Nc1ccccc1)c1ccccc1`, which Potency is on record?
Answer: active: 1.58 µM

Question: For `CC(C)(C)C(=O)N1CCN(c2ccc(NC(=O)c3ccc([N+](=O)[O-])o3)cc2)CC1`, which “activity change, negative = inhibition” value is on record?
Answer: inactive: -16.8%

Question: Which Potency does the source give for `COc1ccc(OC)c(NC(=O)c2ccc3c(c2)c(C)c(C)n3Cc2ccc(F)cc2)c1` here?
Answer: inconclusive: 11.2 µM [inhibitor, full curve]

Question: For `CCCC[n+]1ccn(-c2nc3ccccc3nc2[N-]S(=O)(=O)c2ccc(Br)cc2)c1`, which Potency is on record?
Answer: inconclusive: 44.7 µM [inhibitor, partial curve]

Question: `Cc1cc(C)n2nc(C(=O)OCC(=O)N(Cc3ccccc3)C(C)C)nc2n1` was tested. Which Potency did it give?
Answer: inconclusive: 39.8 µM [inhibitor, single point]

Question: With `CCOc1ccc(N(C(=O)c2ccc(C)cc2)S(=O)(=O)c2ccc3c(c2)n(C)c(=O)n3C)cc1` as the compound, how does the “activity change, negative = inhibition” value read?
Answer: inactive: -33.3%

Question: `COc1cc(/C=N/Nc2ccc(C(=O)O)cc2)ccc1O` was tested. Which Potency did it give?
Answer: inconclusive: 35.5 µM [inhibitor, single point]

Question: `COc1cc(OC)c(-c2c3cc(O)c(=O)cc-3oc3cc(O)c(O)cc23)cc1OC` was tested. Which Potency did it give?
Answer: active: 1.12 µM

Question: For `Cc1ccnc(NS(=O)(=O)c2ccc(NC(=O)c3ccc(Br)o3)cc2)n1`, which “activity change, negative = inhibition” value is on record?
Answer: inactive: -9.7%

Question: How did the “activity change, negative = inhibition” value turn out when `C=CCN(Cc1ccc(Cl)s1)C(=O)c1cc(S(=O)(=O)N2CCOCC2)ccc1F` was run?
Answer: inactive: 4.05%

Question: For `COc1cc(C2c3c(-c4cc(Cl)c(C)cc4O)n[nH]c3C(=O)N2Cc2cccnc2)ccc1O` (centres undefined), which Potency is on record?
Answer: inconclusive: 31.6 µM [inhibitor, partial curve, poor fit]

Question: For `COc1ccc(O)c(-c2cc(-c3cccc(Br)c3)n[nH]2)c1`, which Potency is on record?
Answer: inconclusive: 44.7 µM [inhibitor, partial curve]

Question: With `O=C(C[n+]1cccc2ccccc21)c1ccc([N+](=O)[O-])cc1` as the compound, how does the Potency read?
Answer: active: 28.2 µM

Question: How did the Potency turn out when `CCCN1C(=O)/C(=C/C=C2\N(CC)c3ccccc3C2(C)C)SC1=S` was run?
Answer: active: 11.2 µM

Question: Which Potency does the source give for `CN(C)CCCOc1cccc(Cl)c1` here?
Answer: active: 17.8 µM

Question: How did the “activity change, negative = inhibition” value turn out when `CCN1C(=O)/C(=C/c2cccs2)N(C)C1=S` was run?
Answer: inactive: -12.2%

Question: How did the Potency turn out when `COc1ccc(CNC(=O)CCCc2cn(C)c3ccccc23)c(OC)c1` was run?
Answer: inconclusive: 56.2 µM [inhibitor, partial curve]

Question: With `O=C1C(=Cc2ccc(Br)o2)C(=O)c2ccccc21` as the compound, how does the Potency read?
Answer: active: 7.94 µM

Question: For `CCCSCCCNC(=O)Cn1nc(CC)n2c(cc3c(OC)cccc32)c1=O`, which “activity change, negative = inhibition” value is on record?
Answer: inactive: -20.5%

Question: Which Potency does the source give for `Cc1ccc(OCc2nnc(SCC(=O)C(C)(C)C)n2Cc2ccco2)cc1` here?
Answer: inconclusive: 79.4 µM [inhibitor, single point]

Question: How did the “activity change, negative = inhibition” value turn out when `Cc1ccc(NP(=O)(Nc2ccc(C)cc2)Nc2ccc(C)cc2)cc1` was run?
Answer: inactive: -29.7%

Question: Which Potency does the source give for `COc1ccc(-n2c(SCC#N)nc3c(sc(=S)n3-c3ccccc3)c2=O)c(OC)c1` here?
Answer: inconclusive: 56.2 µM [inhibitor, partial curve]

Question: For `COc1ccc2nc(-n3c(C)ccc3C)sc2c1`, which Potency is on record?
Answer: inconclusive: 89.1 µM [inhibitor, single point]

Question: With `Cc1ccc(S(=O)(=O)N2CCC(C(=O)Nc3ncccc3O)CC2)cc1` as the compound, how does the “activity change, negative = inhibition” value read?
Answer: inactive: -17.9%

Question: `CCc1cccc2c1NC(=O)C21N2CCCC2C(C(=O)c2ccc3ccccc3c2)C12C(=O)Nc1ccccc12` (centres undefined) was tested. Which Potency did it give?
Answer: inconclusive: 20 µM [inhibitor, single point]

Question: How did the Potency turn out when `Cc1ccc(C(=O)NCC(=O)OCC(=O)/C=C2\N(C)c3ccccc3C2(C)C)cc1C` was run?
Answer: inconclusive: 5.62 µM [inhibitor, partial curve]

Question: With `c1cn(CCCNC2CCCCCCC2)cn1` as the compound, how does the Potency read?
Answer: active: 39.8 µM

Question: `Cc1c(CN(C)C)c2c(n1Cc1ccccc1)C(=O)c1ccccc1-2` was tested. Which Potency did it give?
Answer: active: 50.1 µM

Question: Which “activity change, negative = inhibition” value does the source give for `COC(=O)c1ccccc1NC1CC(=O)N(c2c(C)cccc2C)C1=O` (centres undefined) here?
Answer: inactive: -9.09%

Question: With `COc1ccccc1Nc1ncnc2c1c(C)c(C)n2CCCN(C)C` as the compound, how does the Potency read?
Answer: inconclusive: 39.8 µM [inhibitor, partial curve]

Question: With `Cc1cc(C)cc(NC(=O)Cn2nnc(C(=O)Nc3cc(C)cc(C)c3)c2N)c1` as the compound, how does the “activity change, negative = inhibition” value read?
Answer: inactive: -8.67%
